Some of the results follow. At the low end of the ranking the order means little.
The sequences below were run against SIX1 homeodomain (reference allele) (UniProt Q15475) (assay: universal protein binding microarray). Details: Universal all-10-mer PBM (8x60K, AMADID 030236), 300 nM GST-tagged protein, Alexa Fluor 488 anti-GST; buffer, salt, pH and temperature not stated; high values mean tight binding; most listed sequences are background and not binding sites; double strand, one strand shown.
Sequence CTTTTCAA has a binding signal of -0.249 E-score.
Sequence AAAGGTGC has a binding signal of -0.197 E-score.
AGGGGTCA gave a binding signal of 0.119 E-score.
Sequence ACGTTCTC has a binding signal of -0.103 E-score.
Work on GACGATCA yielded a binding signal of 0.0136 E-score.
CGCTAAAC gave a binding signal of -0.109 E-score.
For TATAATCA, the binding signal was 0.111 E-score.
AAATGACA gave a binding signal of -0.094 E-score.
With GTAAGCCA the binding signal was -0.0874 E-score.
CCAGTTCC was tested, and the binding signal was -0.0447 E-score.
GTGATCCA was tested, and the binding signal was 0.377 E-score.
In the case of AGCCCAAA, the binding signal is reported as -0.11 E-score.
With CGTCGGAA the binding signal was -0.136 E-score.
In the case of ACGTAAGT, the binding signal is reported as -0.124 E-score.
For CAATAAGG, the binding signal was -0.0884 E-score.
Sequence CCAACTAG has a binding signal of 0.0523 E-score.
ATTGTTGG showed a binding signal of -0.197 E-score.
With GAAGGTCA the binding signal was -0.196 E-score.
In the case of AATGTATA, the binding signal is reported as 0.259 E-score.
Work on AGCATACC yielded a binding signal of 0.138 E-score.
With TTATTCAA the binding signal was 0.0246 E-score.
Work on TCGCCCAA yielded a binding signal of -0.134 E-score.
For CGTGCAAG, the binding signal was -0.243 E-score.
ATGGACGC showed a binding signal of -0.156 E-score.
In the case of AGGTAACA, the binding signal is reported as -0.103 E-score.
In the case of CCATGAAA, the binding signal is reported as -0.00907 E-score.
With ACGGCCGA the binding signal was -0.23 E-score.
Work on CCATACCG yielded a binding signal of 0.0786 E-score.
With GTGCCCTA the binding signal was -0.15 E-score.
TATGTCCA showed a binding signal of 0.119 E-score.
GGTTCAAA showed a binding signal of -0.0694 E-score.
With GGGGACAA the binding signal was -0.127 E-score.
In the case of CCACCCCC, the binding signal is reported as -0.124 E-score.
AGCCACCT was tested, and the binding signal was -0.155 E-score.
Sequence GACTCTAA has a binding signal of -0.272 E-score.
Sequence GTACCCTA has a binding signal of 0.0922 E-score.
Work on CGGACACC yielded a binding signal of 0.366 E-score.
Work on ATCACCAA yielded a binding signal of 0.232 E-score.
For CAAATGTG, the binding signal was -0.144 E-score.
Work on GATTTAAA yielded a binding signal of -0.154 E-score.
GCATCTAA was tested, and the binding signal was 0.147 E-score.
AAATACCA gave a binding signal of 0.0826 E-score.
For CCCCGCGC, the binding signal was 0.135 E-score.
For TAAAATCA, the binding signal was -0.109 E-score.
CATTCAGG was tested, and the binding signal was -0.0745 E-score.
In the case of AGCACCTG, the binding signal is reported as -0.0861 E-score.
With CCTCATCA the binding signal was 0.0476 E-score.
Work on CAGTAGTA yielded a binding signal of 0.154 E-score.
In the case of ATCGTATC, the binding signal is reported as 0.441 E-score.
With AAAGCAGC the binding signal was -0.263 E-score.
Sequence CAAAGAGG has a binding signal of -0.0816 E-score.
For CCCAATTC, the binding signal was 0.115 E-score.
In the case of CTGTAGTA, the binding signal is reported as 0.0843 E-score.
Sequence ATGCCTAA has a binding signal of -0.0382 E-score.
ACACGGTG was tested, and the binding signal was 0.147 E-score.
Work on ATTTGCTG yielded a binding signal of -0.0863 E-score.
With ACGAGAAC the binding signal was -0.0516 E-score.
AAGTAGAG showed a binding signal of -0.161 E-score.
For GTTATCCA, the binding signal was 0.144 E-score.
Sequence CGAGAATA has a binding signal of 0.213 E-score.
Work on CACCTGAA yielded a binding signal of 0.124 E-score.
AACACCTT showed a binding signal of 0.0499 E-score.
ATGATAGA was tested, and the binding signal was 0.0497 E-score.
Sequence TATCGTGA has a binding signal of 0.279 E-score.
In the case of TATTTGAA, the binding signal is reported as 0.0703 E-score.
ACCCTGTG showed a binding signal of 0.129 E-score.
Work on ACCGCTGA yielded a binding signal of -0.00915 E-score.
With ACCTTCTA the binding signal was 0.00562 E-score.
TCAGGCGA was tested, and the binding signal was 0.0326 E-score.
Sequence AGGCAACC has a binding signal of -0.121 E-score.
In the case of CTTCAGTC, the binding signal is reported as -0.142 E-score.
AAAACCGG showed a binding signal of 0.0498 E-score.
ATTATACG gave a binding signal of 0.302 E-score.
For GCTCGACA, the binding signal was -0.202 E-score.
Work on GCTCGGAA yielded a binding signal of -0.21 E-score.
For CTTCCCAC, the binding signal was -0.0352 E-score.
ACCTCCCG showed a binding signal of 0.0126 E-score.
With CGCACGAG the binding signal was 0.031 E-score.
Sequence CGAACTAG has a binding signal of 0.093 E-score.
In the case of CGCGTGTA, the binding signal is reported as 0.138 E-score.
In the case of CTTCCTTA, the binding signal is reported as -0.139 E-score.
In the case of GAGGGACC, the binding signal is reported as -0.142 E-score.
ATAAATTG gave a binding signal of 0.0219 E-score.
For AGTAGTAC, the binding signal was -0.0347 E-score.
With GGGATAAC the binding signal was 0.303 E-score.
With GACGTGCA the binding signal was -0.182 E-score.
Work on AAATATAG yielded a binding signal of 0.0506 E-score.
Sequence CCTTAAAA has a binding signal of -0.243 E-score.
GGTGAGGA was tested, and the binding signal was -0.0525 E-score.
For ACGTCACT, the binding signal was -0.213 E-score.
For ATACGTGA, the binding signal was 0.336 E-score.
ATGGTTCA showed a binding signal of 0.14 E-score.
CATTGCGG was tested, and the binding signal was 0.222 E-score.
CCGTACCA gave a binding signal of 0.0411 E-score.
CGTACCTA gave a binding signal of 0.0727 E-score.
AGACACGA was tested, and the binding signal was -0.0757 E-score.
GGCGATGA was tested, and the binding signal was 0.193 E-score.
In the case of CGGATGCA, the binding signal is reported as 0.0793 E-score.
For AATACGAG, the binding signal was 0.233 E-score.
CCTAAAGA gave a binding signal of -0.065 E-score.
ACAAACAG gave a binding signal of -0.126 E-score.
CGTCGTTC showed a binding signal of -0.19 E-score.
In the case of AGTATGCC, the binding signal is reported as -0.0268 E-score.
For CTTCGTCA, the binding signal was -0.0487 E-score.
Sequence GGGCCTGA has a binding signal of -0.193 E-score.
With GTAGCTTA the binding signal was 0.0111 E-score.
In the case of CCTGCGCC, the binding signal is reported as -0.157 E-score.
Sequence GGAATTCC has a binding signal of -0.199 E-score.
ACGTCTAG showed a binding signal of 0.00898 E-score.
In the case of GCGATAAC, the binding signal is reported as 0.114 E-score.
Sequence GCCTACAA has a binding signal of -0.123 E-score.
Sequence TCAGGGGA has a binding signal of 0.31 E-score.
Sequence TAATCCAA has a binding signal of 0.185 E-score.
With ACATACGC the binding signal was 0.0882 E-score.
CGAATGCC showed a binding signal of -0.0542 E-score.
Work on TCGGGGCA yielded a binding signal of 0.0548 E-score.
GCATGGCA showed a binding signal of -0.184 E-score.
AGGAGCGA was tested, and the binding signal was -0.0126 E-score.
For ACTCGCGG, the binding signal was -0.0701 E-score.
In the case of GCGTCGTA, the binding signal is reported as -0.0171 E-score.
CCTTGCAA gave a binding signal of -0.181 E-score.
For GCCATTAA, the binding signal was -0.0349 E-score.
CGCTATGA showed a binding signal of 0.0883 E-score.
With GTATATCA the binding signal was 0.429 E-score.
Sequence AAGGATGC has a binding signal of -0.103 E-score.
Sequence GAACCAGC has a binding signal of -0.0751 E-score.
In the case of GTTGTTAA, the binding signal is reported as -0.149 E-score.
GTTACAAA gave a binding signal of -0.0719 E-score.
Sequence TTAACTAA has a binding signal of -0.108 E-score.
Work on CCCCACGC yielded a binding signal of 0.0318 E-score.
Sequence ACACGGTA has a binding signal of 0.188 E-score.
ACGTTTTA gave a binding signal of -0.0854 E-score.
With GCACCACC the binding signal was -0.0595 E-score.
Sequence AAAAAGAC has a binding signal of -0.183 E-score.
CCTCCGTA showed a binding signal of 0.0772 E-score.
In the case of TAGGGGGA, the binding signal is reported as 0.134 E-score.
CTATGTCA was tested, and the binding signal was -0.0989 E-score.
TCAGACCA showed a binding signal of -0.0181 E-score.
Work on AATGTGAG yielded a binding signal of -0.104 E-score.
AACCAGAA gave a binding signal of -0.0951 E-score.
Sequence GACAGCTC has a binding signal of -0.212 E-score.
ATAGAGAC was tested, and the binding signal was -0.0979 E-score.
For CTCTAGCA, the binding signal was -0.203 E-score.
For ATACCCTG, the binding signal was 0.439 E-score.
CGATCACG gave a binding signal of 0.251 E-score.
Work on ACTTATTA yielded a binding signal of -0.0806 E-score.
Work on AGACATTA yielded a binding signal of -0.131 E-score.
AGGAGCTA gave a binding signal of -0.161 E-score.
GCCCACGC showed a binding signal of -0.15 E-score.
GTTCGTAA was tested, and the binding signal was -0.101 E-score.
With ACTTGAGG the binding signal was -0.176 E-score.
Sequence TGTCTTAA has a binding signal of -0.0867 E-score.
Sequence CCGAGCCA has a binding signal of 0.103 E-score.
For ACCTTCGG, the binding signal was -0.118 E-score.
TGTAGCAA was tested, and the binding signal was -0.203 E-score.
With AGGGTGTA the binding signal was 0.313 E-score.
Work on TAGATGCA yielded a binding signal of 0.104 E-score.
Work on ACGGACCC yielded a binding signal of -0.149 E-score.
AGCTCGGA gave a binding signal of -0.0978 E-score.
AGTTAACG gave a binding signal of -0.109 E-score.
CATAATCA was tested, and the binding signal was 0.12 E-score.
CCAGGCGA showed a binding signal of 0.0567 E-score.
For ACGACCCT, the binding signal was -0.00944 E-score.
TCATACCA showed a binding signal of 0.00415 E-score.
ATTTCGCG gave a binding signal of -0.159 E-score.
For GCATGTAC, the binding signal was -0.0943 E-score.
Work on AGCCGGTA yielded a binding signal of 0.169 E-score.
Sequence AACCGTGC has a binding signal of -0.112 E-score.
AGGTTTTA gave a binding signal of -0.129 E-score.
Sequence GACTGGAC has a binding signal of -0.267 E-score.
With GCCTGGAA the binding signal was -0.205 E-score.
With AGAAGACC the binding signal was -0.0826 E-score.

— paper PMC10668032
